{"source": "PubChem BioAssay AID493208", "about": "(National Center for Advancing Translational Sciences (NCATS), 2011)", "note": "About 340 (0.77%) of roughly 44,000 compounds were called active. This list was built around the results that the source calls inconclusive (neither active nor inactive); the mix of calls is not that of the screen. The call rests on the fitted dose curve; in most records, active means well fitted inhibition curve with a large enough effect; inconclusive means small, poorly fitted or top-dose-only effect; inactive means flat fitted curve, though single readings scatter. Potencies of inconclusive entries are left out as doubtful fits. Potency means the concentration at half of the fitted maximal effect; tags describe the fitted curve by direction and shape."}
{"experiment": "Acumen qHTS Assay for Inhibitors of the mTORC1 Signaling Pathway in MEF (Tsc2-/-, p53-/-) Cells: Sytravon; further: nearly all actives have a fitted effect of over 50% in size;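 on activity change, negative = inhibition: plate controls were DMSO for no effect and rapamycin for full effect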", "conditions": "phospho-rpS6 immunofluorescence/PI, 24 h; series mostly up to 38.3 µM; activity change, negative = inhibition: at the top concentration", "outline": "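Tsc2-/-, p53-/- mouse embryonic fibroblasts (empty-vector line) exposed to compound 24 hrs at 37 C, fixed, immunostained for phospho-rpS6 and counterstained with propidium iodide. Acumen laser scanning gives % positive cells from Alexa 488/PI ratio, thresholded using 7.5 nM rapamycin; PI count gives viability.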"}
{"compound": "O=C(NCc1ccccc1Cl)c1cnc(N2CCCCC2)c2ccccc12", "Potency": "inconclusive [falling, single point]"}
{"compound": "Cc1ccc(N2C(=O)c3oc4cc(C)c(C)cc4c(=O)c3C2c2cccc(O)c2)nc1", "note": "(stereo not drawn)", "activity change, negative = inhibition": "inactive: 5.15%"}
{"compound": "CCCN1C(=O)CN(C2CCCCCC2)C(=O)C1c1ccc(OCC)c(OC)c1", "note": "(stereo not drawn)", "Potency": "inconclusive [falling, single point]"}
{"compound": "COc1ccccc1CCNC(=O)c1cc2ccccn2n1", "Potency": "inconclusive [falling, partial curve, poor fit]"}
{"compound": "Cc1cc(C)cc(OCC(=O)Nc2cccc(-c3nc4ccccc4[nH]3)c2)c1", "Potency": "inconclusive [falling, partial curve, poor fit]"}
{"compound": "CCOc1ccc2nc(N3CCCC(C(=O)NCCc4ccc(SC)cc4)C3)sc2c1", "note": "(stereo not drawn)", "activity change, negative = inhibition": "inactive: -4.94%"}
{"compound": "COCCCNC(=O)c1sc2nc(C)c(C(=O)Nc3ccc(Cl)cc3)c(-c3ccc(Br)cc3)c2c1N", "Potency": "inconclusive [falling, full curve, poor fit]"}
{"compound": "CCC(=O)Nc1cc(-c2nc3cc(C)cc(C)c3o2)ccc1C", "Potency": "inconclusive [falling, single point]"}
{"compound": "Cc1cc(C)cc(NC(c2cccc(Cl)c2)c2nnc(-c3ccccc3)o2)c1", "note": "(stereo not drawn)", "Potency": "inconclusive [falling, single point]"}
{"compound": "COc1ccccc1NC(=O)Cn1c(=O)n(CCc2ccccc2)c(=O)c2sc3ccccc3c21", "activity change, negative = inhibition": "inactive: 7.3%"}
{"compound": "CCN1CCN(c2cc(C)c3cc(NC(=O)c4cc(Br)ccc4Cl)ccc3n2)CC1", "Potency": "inconclusive [falling, single point]"}
{"compound": "Cc1cc(C)cc(NS(=O)(=O)c2ccc(-c3cc(C)no3)s2)c1", "Potency": "inconclusive [falling, single point]"}
{"compound": "COc1cc2c(cc1OC)n(CC(=O)Nc1ccc(C)cc1C)c(=O)n1nc(-c3ccccc3)nc21", "Potency": "inconclusive [falling, single point]"}
{"compound": "CC(C)c1ccc(Nc2cc(C(=O)NCCCN(C)Cc3ccccc3)c3ccccc3n2)cc1", "activity change, negative = inhibition": "inactive: -11.9%"}
{"compound": "COC(=O)c1ccc(C2c3c(-c4ccc(Br)cc4)n[nH]c3C(=O)N2c2ccc(Cl)cc2)cc1", "note": "(stereo not drawn)", "Potency": "inconclusive [falling, partial curve, poor fit]"}
{"compound": "Cc1cccc2sc(N(Cc3cccnc3)C(=O)CCS(=O)(=O)c3ccccc3)nc12", "Potency": "inconclusive [falling, single point]"}
{"compound": "Cn1c(=O)oc2cc(S(=O)(=O)N3CCC(C(=O)NCc4ccc(F)cc4)CC3)ccc21", "Potency": "inconclusive [activator, full curve, poor fit]"}
{"compound": "CC(=O)Nc1ccc(NC(=O)c2ccc(COc3ccc(Cl)cc3Cl)o2)cc1", "Potency": "inconclusive [falling, single point]"}
{"compound": "Cc1cccc(NC(=O)c2c(C)cc(C)nc2SCC(=O)Nc2c(C)cc(C)cc2C)c1", "Potency": "inconclusive [falling, partial curve, poor fit]"}
{"compound": "CC(C)c1ccc(NC(=O)C2CCN(c3nc(-c4ccc(C(C)C)cc4)no3)CC2)cc1", "Potency": "inconclusive [falling, single point]"}
{"compound": "CC(C)c1ccc(NC(=O)c2ccc3c(c2)CCCN3S(C)(=O)=O)cc1", "Potency": "inconclusive [falling, single point]"}
{"compound": "O=C(Cn1cc(SCc2ccccc2)c2ccccc21)N1CCCCC1", "Potency": "inconclusive [falling, single point]"}
{"compound": "Cc1ccccc1-c1ccnc2c(-c3ccc(F)cc3)c(C)nn12", "Potency": "inconclusive [falling, partial curve, poor fit]"}
{"compound": "COc1ccc(C2Nc3ccccc3-n3c(-c4ccccc4)c4c(=O)n(C)c(=O)n(C)c4c32)cc1", "note": "(stereo not drawn)", "Potency": "inconclusive [falling, partial curve, poor fit]"}
{"compound": "COC(=O)c1ccc(Nc2nc(-c3ccc(C)cc3)nc3ccccc23)cc1", "activity change, negative = inhibition": "inactive: -5.82%"}
{"compound": "CCOc1ccc(N2CC(C)Cn3c2nc2c3c(=O)n(CC(=O)O)c(=O)n2C)cc1", "note": "(stereo not drawn)", "Potency": "inconclusive [falling, single point]"}
{"compound": "CC1=C(c2ccc(C)cc2)S(=O)(=O)NC1=NCCCN1CCN(c2cc(C)ccc2C)CC1", "activity change, negative = inhibition": "inactive: -9.39%"}
{"compound": "O=C(NCc1ccc(F)cc1)c1cc(Sc2ccc(F)cc2F)nc2ccccc12", "activity change, negative = inhibition": "inactive: 0.267%"}
{"compound": "Cc1ccc(N(C)C(=O)C2CCN(S(=O)(=O)c3cn(C)cn3)CC2)cc1", "Potency": "inconclusive [falling, full curve, poor fit]"}
{"compound": "CCOC(=O)c1cc(S(=O)(=O)NCc2ccc(OC)cc2)[nH]n1", "Potency": "inconclusive [falling, single point]"}
{"compound": "COCc1oc2ccc(NS(=O)(=O)c3ccc(C)cc3)cc2c1C(=O)OC", "Potency": "inconclusive [falling, partial curve, poor fit]"}
{"compound": "CCc1ccc2oc(-c3ccc(NC(=O)c4cccc(Cl)c4Cl)cc3)nc2c1", "Potency": "inconclusive [falling, single point]"}
{"compound": "CCOc1ccc(/C=C/c2nc(C#N)c(NCCCN(C)C)o2)cc1", "Potency": "inconclusive [falling, single point]"}
{"compound": "CCCN(CCC)C(=O)c1nn(C)c2c1CSc1ccccc1-2", "Potency": "inconclusive [falling, partial curve, poor fit]"}
{"compound": "Cc1ccc(-n2cnc3cc(C(=O)NCCC4=CCCCC4)ccc32)cc1Cl", "Potency": "inconclusive [falling, single point]"}
{"compound": "Cc1cccc(NC(=O)N2CC=C(c3c[nH]c4ccccc34)CC2)c1C", "activity change, negative = inhibition": "inactive: -17.1%"}
{"compound": "COc1ccc(-c2nc3ccccc3s2)cc1NC(C)=O", "activity change, negative = inhibition": "inactive: 2.14%"}
{"compound": "Cc1ccc(C)c(S(=O)(=O)c2nnn3c2nc(N2CCCCC2)c2sccc23)c1", "Potency": "inconclusive [falling, partial curve, poor fit]"}
{"compound": "O=C(c1ccc(F)cc1)n1nc(-c2ccc(Cl)cc2)nc1NCc1ccco1", "Potency": "inconclusive [falling, partial curve, poor fit]"}
{"compound": "CC(C)c1ccc(/C=C(\\C#N)c2nc(-c3ccc(O)cc3)cs2)cc1", "Potency": "inconclusive [falling, single point]"}
{"compound": "Cc1cc(C)cc(NC(=O)Cn2c(=O)n(CC(=O)NCCc3ccccc3)c(=O)c3ccccc32)c1", "activity change, negative = inhibition": "inactive: -2.71%"}
{"compound": "CCOc1ccc(C(=O)Nc2ccc3nc4c(c(Nc5ccccc5OC)c3c2)CCCC4)cc1", "Potency": "inconclusive [falling, partial curve, poor fit]"}
{"compound": "CCCOCc1cc(CN2CCN(c3ccccc3OC)CC2)c(O)c2ncccc12", "Potency": "active: 9.27 µM"}
{"compound": "CCOc1ccc(Nc2oc(-c3ccc(COc4ccc(C)cc4)o3)nc2C#N)cc1", "Potency": "inconclusive [falling, single point]"}
{"compound": "O=C(CCCn1c(=O)[nH]c2ccsc2c1=O)N1CCN(c2ccc(Cl)cc2)CC1", "activity change, negative = inhibition": "inactive: 1.65%"}
{"compound": "O=C(NCCCN1CCN(c2ccc(F)cc2)CC1)c1cc2c(s1)-c1ccccc1OC2", "Potency": "inconclusive [falling, single point]"}
{"compound": "Cc1cccc(-c2nc3cc(NC(=O)Cc4ccc(Cl)cc4)ccc3o2)c1", "Potency": "inconclusive [falling, single point]"}
{"compound": "CCN(CC)CCOC(=O)c1ccc(NC(=O)c2nn(-c3ccc(C)cc3)c(=O)c3c2c2ccccc2n3C)cc1", "Potency": "active: 0.927 µM"}
{"compound": "COc1ccc(Cn2nnc3c(=O)[nH]c(C4CCCN(C(=O)c5ccccc5Cl)C4)nc32)cc1OC", "note": "(stereo not drawn)", "Potency": "inconclusive [falling, full curve, poor fit]"}
{"compound": "COc1ccc(CNC(=O)c2oc3c(c2C)-c2nn(Cc4ccccc4Cl)cc2CC3)cc1", "Potency": "inconclusive [falling, partial curve, poor fit]"}
{"compound": "COc1ccc(NC(=O)c2c(NCc3ccc(C)o3)sc3c2CCC(C)C3)cc1", "note": "(stereo not drawn)", "Potency": "inconclusive [falling, single point]"}
{"compound": "CCOC(=O)c1ccc(NC(=O)c2nc(S(=O)(=O)Cc3ccccc3)ncc2Cl)cc1", "Potency": "inconclusive [falling, single point]"}
{"compound": "Cc1nn(CCCC(=O)NCc2ccccc2)c(=O)c2c1sc1ccccc12", "Potency": "inconclusive [falling, partial curve, poor fit]"}
{"compound": "Cc1c(C(=O)NCCN(C)C)oc2c1-c1nn(Cc3ccccc3Cl)cc1CC2", "Potency": "inconclusive [falling, partial curve, poor fit]"}
{"compound": "Cc1ccc2nc(/C(C#N)=C/c3ccc(-c4cccc(Cl)c4)o3)[nH]c2c1", "activity change, negative = inhibition": "inactive: -5.89%"}
{"compound": "Cc1cccc(C(CC(=O)NCC2(c3ccccc3)CCCC2)c2ccccc2)c1O", "note": "(stereo not drawn)", "Potency": "inconclusive [falling, single point]"}
{"compound": "Cc1ccc(SCC(=O)Nc2ccc3oc(-c4cccc(C)c4)nc3c2)cc1", "activity change, negative = inhibition": "inactive: -9.92%"}
{"compound": "Cc1ccc(Cl)cc1NC(=O)CCS(=O)(=O)c1ccc(Br)s1", "Potency": "inconclusive [activator, partial curve, poor fit]"}
{"compound": "O=C(NCCCN1CCN(c2ccccc2)CC1)c1cc2c(s1)-c1ccccc1OC2", "Potency": "inconclusive [falling, full curve, poor fit]"}
{"compound": "CCCCNC(=O)C1CCN(Cc2nc(-c3ccc(OC)c(OC)c3)oc2C)CC1", "activity change, negative = inhibition": "inactive: -23.8%"}
{"compound": "COc1cccc(C(=O)Nc2cccc(OCc3cc(=O)n4cc(C)ccc4n3)c2)c1", "Potency": "inconclusive [falling, single point]"}
{"compound": "CCc1ccc(C2Sc3ccccc3NC3=C2C(=O)c2ccccc23)cc1", "note": "(stereo not drawn)", "activity change, negative = inhibition": "inactive: -9.14%"}
{"compound": "Cc1oc(-c2cccc(Cl)c2)nc1CN1CCC(C(=O)NCCCN2CCN(c3cccc(Cl)c3)CC2)CC1", "activity change, negative = inhibition": "inactive: 0.0567%"}
